Source: patent US20240269276A1 (HARBOUR BIOMED SHANGHAI, published 2024)

Biological target: T1, human CD73 on CHO-K1 cells overexpressing human CD73 (human, UniProt P21589 27-549)
T1 construct: whole, on cells; also called CHO-K1-hCD73
T1 sequence (looked up): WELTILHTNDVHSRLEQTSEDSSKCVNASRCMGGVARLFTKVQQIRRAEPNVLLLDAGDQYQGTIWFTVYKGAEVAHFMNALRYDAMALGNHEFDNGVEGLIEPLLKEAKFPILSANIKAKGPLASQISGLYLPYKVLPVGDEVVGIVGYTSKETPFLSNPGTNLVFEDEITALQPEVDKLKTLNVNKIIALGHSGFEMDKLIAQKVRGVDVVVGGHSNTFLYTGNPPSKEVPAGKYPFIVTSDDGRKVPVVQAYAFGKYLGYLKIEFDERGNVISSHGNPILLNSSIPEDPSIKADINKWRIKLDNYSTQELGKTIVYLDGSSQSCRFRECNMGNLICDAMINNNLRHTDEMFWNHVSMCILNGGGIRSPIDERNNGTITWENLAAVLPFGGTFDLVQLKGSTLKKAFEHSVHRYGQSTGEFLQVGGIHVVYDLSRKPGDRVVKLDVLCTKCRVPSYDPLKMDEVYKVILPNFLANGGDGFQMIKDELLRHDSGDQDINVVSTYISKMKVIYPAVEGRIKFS
Assay: flow cytometry on CHO-K1 cells overexpressing human CD73 (CHO-K1-hCD73)
Description: In order to investigate the binding activity of the CD73×PD-L1 bispecific antibody to human CD73 and PD-L1, the binding experiment at the cellular level was performed using CHO-K1 cell strains overexpressing human CD73 or PD-L1 (CHO-K1-hCD73 or CHO-K1-hPD-L1). Briefly, the CHO-K1-hCD73 and CHO-K1-hPD-L1 cells were digested and resuspended in an F-12K complete medium, and the cell density was adjusted to 1×10⁶ cells/mL. The cells were seeded in a 96-well V-bottom plate (Corning, #3894) at 100 μL/well, followed by the addition at 100 μL/well and centrifugation at 500 g at 4° C. for 5 min, and then the supernatant was discarded. Antibodies were 3-fold diluted to a maximum final concentration of 50 nM, and a total of 8 concentrations were set. 100 μL of the diluted antibodies was added to the cells, and the cells were incubated away from light at 4° C for 1 h. Thereafter, the cells in each well were rinsed twice with 100 μL of pre-cooled PBS, and centrifuged at 500 g at 4° C. for 5 min, and then the supernatant was discarded. Then 100 μL of a fluorescent secondary antibody (goat anti-human IgG (H+L) secondary antibody, Alexa Fluor® 488 conjugate, Invitrogen, #A11013, diluted at the ratio of 1:1000) was added to each well. […] Finally, the cells in each well were resuspended in 200 μL of pre-cooled PBS, and the fluorescence signal values were read using a BD FACS CANTOII.

EC50: 1.73 nM
B1: PR003569 (bispecific antibody, human IgG1, kappa)
heavy: QVQLVESGGGVVQPGMSLRLSCAASGFTFSSYGMYWVRQAPGKGQEWVAIIWYDGTKKHYADSVKGRFTISRDNSKNTLYLEMNSLRVEDTAVYYCAKNRAIFGVVPDASDIRGQGTMVTVSSGGGGSGGGGSGGGGSQVQLVESGGGVAQPGRSLSLSCAASGFTFSDYGMHWVRQAPGKGLEWVALIWYDASFEYYADSVKGRFSISRDNSKNTLYLQMNSLRAEDTAVYYCVRDAQWGSRLDYWGQGTLVTVSSASTKGPSVFPLAPSSKSTSGGTAALGCLVKDYFPEPVTVSWNSGALTSGVHTFPAVLQSSGLYSLSSVVTVPSSSLGTQTYICNVNHKPSNTKVDKKV[human IgG1 Fc with changes omitted]
light: KIVMTQSPATLSLSPGERATLSCRASQSVSRYLAWYQQKPGQAPRLLIYDASNRATGIPARFSGSGSGTDFTLTISSLEPEDFAVYYCQQRSNWIFTFGPGTKVDIKRTVAAPSVFIFPPSDEQLKSGTASVVCLLNNFYPREAKVQWKVDNALQSGNSQESVTEQDSKDSTYSLSSTLTLSKADYEKHKVYACEVTHQGLSSPVTKSFNRGEC
notes: light chain of PR000846; also called CD73×PD-L1 bispecific antibody PR003569
